The campaign covered roughly 410,000 compounds. About 7,200 (1.8%) were called active. Inconclusive results, whose numbers are uncertain, are shown with a selection of clear calls. Calls come from the whole dose curve; as a rule, active = well fitted activation curve with a large enough effect; inconclusive = small, poorly fitted or top-dose-only effect, or another doubt; inactive = no such curve, though single readings can be large or run the other way. A potency beside an inconclusive call is a rough fit, not a confirmed value.
assay: qHTS of TDP-43 Inhibitors; conditions: TDP-43 expressing yeast growth rescue, BacTiter-Glo, 24 h; growth rescue (activation): at 46.1 µM (top of the series) unless noted; note: nearly all actives have a fitted effect of over 50% in size; for growth rescue (activation): % of control where 0% means no effect
In short: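 Growth rescue of TDP-43-toxic yeast measured as ATP luminescence (BacTiter-Glo). Cells grown to mid-log in raffinose, induced in galactose at OD600=0.02, exposed to compound 24 hr at 30 deg C.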
Potency is the fitted concentration of half-maximal effect; tags give direction and shape of the fitted curve.

Potency, active:
Cc1ccc2nc(N(Cc3cccnc3)C(=O)C3CCCCC3)sc2c1 5.62 µM
CCCCN(C)C(=O)c1sc(=O)n(Cc2ccc(Cl)c(Cl)c2)c1C 25.1 µM
Nc1ccc2c(c1)C(=O)N(c1cccc3ccccc13)C2=O 14.1 µM
CCN(CC)c1cc(C)nc2nc(-c3ccc(C)cc3)nn12 20 µM
O=[N+]([O-])c1ccccc1-c1cc(-c2cc(Cl)ccc2O)n[nH]1 12.6 µM
O=C(NC(=S)N1CCN(c2nc(-c3ccccc3)cs2)CC1)c1cncc(Br)c1 15.8 µM

Potency, inconclusive:
CC(C)N1C(=O)S/C(=C/c2ccc3c(c2)n(C)c(=O)n3C)C1=O 2.82 µM [activator, partial curve]
Cc1csc2ncc(C(=O)Nc3ccc(C(F)(F)F)cc3)c(=O)n12 1.26 µM [activator, full curve]
Cc1ccccc1OCCCCn1cnc2ccccc21 15.8 µM [activator, single point]
CCOc1ccccc1C(=O)NCc1ccc2c(c1)CCN2C(C)=O 12.6 µM [activator, partial curve]
CC(C)CC(OC(=O)CC1Sc2ccccc2NC1=O)C(=O)NC1CCCC1 (stereo not drawn) 15.8 µM [activator, single point]
CC(=O)Nc1cccc(NC(=O)c2cccc(Cl)c2)c1 3.16 µM [activator, single point]
CCCn1c(-c2ccc(F)cc2)n[nH]c1=S 8.91 µM [activator, partial curve]
O=[N+]([O-])c1ccccc1-c1ccc(C(=S)N2CCCCC2)o1 1.12 µM [activator, full curve, poor fit]
O=C(Nc1cnn(Cc2ccc(F)cc2)c1)c1noc2c1CCCC2 14.1 µM [activator, partial curve]
CC(C)(C)NC(=O)c1ccc(NC(=O)C2COc3ccccc3O2)cc1 (stereo not drawn) 35.5 µM [activator, single point]
Nc1cc(=O)nc(SCC(=O)Nc2ccc(F)cc2)n1-c1ccc(Cl)cc1 0.631 µM [activator, full curve]
C[C@H]1CN(Cc2ccccc2)C(=O)[C@@H]1CC(=O)Nc1ccccc1 35.5 µM [activator, partial curve, poor fit]
O=C(O)/C=C\C(=O)Nc1cccc(NC(=O)c2ccccc2)c1 8.91 µM [activator, single point]
CCNc1nc(NC(C)C)nc(N(C#N)CCOc2ccccc2)n1 17.8 µM [activator, single point]
O=C(COC(=O)/C=C/c1ccc([N+](=O)[O-])cc1)Nc1ccc(F)cc1 6.31 µM [activator, full curve]
CCc1nnc(NC(=O)CSc2nc3c(c(=O)n2CC)SC(C)C3)s1 (stereo not drawn) 5.62 µM [activator, partial curve]
CC(=O)c1cccc(NC(=O)C2Cc3c(-c4ccccc4)ccnc3O2)c1 (stereo not drawn) 35.5 µM [activator, single point]
NC(c1csc(Nc2ncccn2)n1)c1ccccc1Cl (stereo not drawn) 3.55 µM [activator, single point]
COc1cccc(-c2cnc3c(NC=O)cc(-c4ccoc4)cn23)c1 10 µM [activator, partial curve, poor fit]
CN1OC[C@@H]2CN(S(=O)(=O)c3cccc(C(F)(F)F)c3)[C@H](c3ccc(-c4cc5ccccc5o4)cc3)C[C@@H]21 6.31 µM [activator, partial curve, poor fit]
COc1ccc(-c2csc(NC(C)c3nc4cc(Cl)c(N5CCCCC5)cc4n3CCOCCO)n2)cc1 (stereo not drawn) 11.2 µM [activator, partial curve]
CC(=O)N(/N=C1\Sc2ccccc2C1=O)c1ccccc1C 35.5 µM [activator, single point]
Cc1c(Oc2ccc(C(F)(F)F)cc2[N+](=O)[O-])ccc2c3c(c(=O)oc12)CCC3 35.5 µM [activator, partial curve, poor fit]
CCc1ccc2nc(N3CCC(C(=O)O)CC3)sc2c1 35.5 µM [activator, single point]
Cc1ccc(-n2nnnc2CNC(=O)c2ccc(Br)o2)cc1C 12.6 µM [activator, partial curve]
COC(=O)C1=C(C)N(C)C(C)=C(C(=O)OC)C1c1cccc(Br)c1 15.8 µM [activator, partial curve, poor fit]
O=C(c1ccc(Oc2ccc([N+](=O)[O-])cc2)cc1)N1CCCCCC1 22.4 µM [activator, single point]

Potency, inactive:
O=C(Nc1nc(-c2ccc(S(=O)(=O)N3CCOCC3)cc2)cs1)c1ccccc1

Growth rescue (activation), inconclusive:
Cc1c(Cl)cccc1-n1c(CCC(=O)O)ccc1-c1cccs1 -92.3% [activator]

Growth rescue (activation), inactive:
COc1ccc(NC(=O)CN(C)C(=O)c2cn(-c3ccccc3)nc2-c2ccc(OC)cc2)cc1 14.4%
CCOC(=O)c1c(S(=O)(=O)N2CCCC(C(=O)N3CCN(c4ccc(F)cc4)CC3)C2)c(C)n(C)c1C (stereo not drawn) 4.56%
Cc1ccc(C)c(S(=O)(=O)c2cnc(SCC(=O)Nc3ccc(F)cc3F)[nH]c2=O)c1 2.49%
O=C(NC1CCCCC1)C(c1ccncc1)N(Cc1ccc2c(c1)OCO2)C(=O)C(F)(F)F (stereo not drawn) 3.25%
Cc1cccc(CN2C(=O)N/C(=C/c3cc(C)n(-c4ccccn4)c3C)C2=O)c1 13.9%
Cc1ccc(OCCNC(=O)c2cccc(S(=O)(=O)N3CCN(C)CC3)c2)cc1 6.55%
CCC(C(=O)N1CCN(c2cc(Cl)ccc2C)CC1)n1nc(C)n2c(cc3occc32)c1=O (stereo not drawn) 9.83%
COc1cc(CNCc2c(C(=O)O)c(C)n(Cc3cccc(Cl)c3)c2C)cc(OC)c1OC -24.7%

Reference: PubChem BioAssay AID652104 (National Center for Advancing Translational Sciences (NCATS), 2013)
